Out of some 48,000 compounds screened, about 120 (0.25%) were called active. About 4% were inconclusive and are not listed. Calls come from the whole dose curve; as a rule, active = well fitted activation curve with a large enough effect; inconclusive = small, poorly fitted or top-dose-only effect, or another doubt; inactive = no such curve, though single readings can be large or run the other way. The list shows a part of the results.
Experiment: Primary qHTS for Identification of Small Molecule Activators of Huntingtin-Antisense Promoter Activity; note: nearly all actives have a fitted effect of over 55% in size
Details: HEK293 HTT-AS promoter firefly luciferase reporter (activity 0% = vehicle and -100% = no light), 24 h; series mostly up to 57.5 µM; activity change, positive = activation: at the top concentration
How it was run: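 Luminescence was read after Dual-Glo reagent and a 10 min room-temperature incubation. Values were normalized to vehicle (0% activity) and zero RLU (-100% activity). Reporter HEK293 cells had been exposed to compounds (up to 57.5 uM final) for 24 h.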
Potency is the fitted concentration of half-maximal effect.

Row | SMILES | activity change, positive = activation | Potency
1 | Cc1ccc(NC(=O)CN2C(=O)C(c3ccc(C(C)(C)C)cc3)=NC2(C)C)cc1 | inactive: -17.4% | –
2 | CC(=O)[C@]1(O)Cc2c(O)c3c(c(O)c2[C@@H](O[C@H]2C[C@H](N)[C@H](O)[C@H](C)O2)C1)C(=O)c1ccccc1C3=O | inactive: -37% | –
3 | CCCN(CCC)C(=O)CSc1c2c(nc3ccc(Cl)cc13)CCCC2 | inactive: -36.7% | –
4 | O=[N+]([O-])c1cc(-c2nc(-c3ccccc3)no2)ccc1NCc1cccnc1 | inactive: -36.5% | –
5 | CN1C(CSCC(F)(F)F)Nc2cc(Cl)c(S(N)(=O)=O)cc2S1(=O)=O (configuration not stated) | inactive: -14.4% | –
6 | Cc1cc(C)cc(-n2c(SCC(=O)Nc3cccc(F)c3)nc3c([nH]c4ccccc43)c2=O)c1 | inactive: -27.7% | –
7 | Cc1ccc(C)c(NC(=O)C(Cc2ccccc2)n2cccc2)c1 (configuration not stated) | inactive: -21.7% | –
8 | COc1ccc(OC)c(NC(=O)Cn2c(=O)n(Cc3ccco3)c(=O)c3cc(OC)c(OC)cc32)c1 | inactive: -16.1% | –
9 | Brc1ccc(Nc2c3c(nc4nncn24)CCC3)cc1 | inactive: -25.6% | –
10 | CC(C)C[C@H](NC(=O)CNC(=O)[C@H](Cc1ccc(O)cc1)NC(=O)[C@H](CO)NC(=O)[C@H](Cc1c[nH]c2ccccc12)NC(=O)[C@H](Cc1cnc[nH]1)NC(=O)[C@@H]1CCC(=O)N1)C(=O)N[C@@H](CCCN=C(N)N)C(=O)N1CCC[C@H]1C(=O)NCC(N)=O (stereo in doubt) | inactive: -14.5% | –
11 | CC1CCCCN1C(=O)CN1CCSc2ccccc21 (configuration not stated) | inactive: -6.24% | –
12 | CCC(=O)Nc1ccc(CC)cc1-c1nc2ccccc2n(CC(=O)c2ccc(OC)cc2)c1=O | inactive: -16.2% | –
13 | Cc1ccc(-c2cc(NC(=O)c3cccc(C)c3)on2)cc1 | inactive: 9.33% | –
14 | O=S(=O)(NCc1ccc(F)cc1)c1ccc2[nH]c3c(c2c1)CCCC3 | inactive: -27.7% | –
15 | Cc1c(Cl)cccc1NC(=O)c1oc2ccc(S(=O)(=O)N3CCC4(CC3)OCCO4)cc2c1C | inactive: -44% | –
16 | COc1ccc(NC(=O)C2Cc3ccccc3CN2S(=O)(=O)c2ccccc2)cc1OC (configuration not stated) | inactive: -13.4% | –
17 | CCc1cccc(-n2c(=O)c3cccnc3n2CC(=O)Nc2ccc(OC)c(Cl)c2)c1 | inactive: -27.2% | –
18 | CCc1ccccc1NC(=O)CCCn1c(=O)c2cccn2c2ccccc21 | inactive: -12.4% | –
19 | COc1cccc(-n2c(SCC(N)=O)nc3c(oc4ccccc43)c2=O)c1 | inactive: -21.8% | –
20 | Cc1ccc(NC(=O)c2cnc3cc(C)ccn3c2=O)c(C)c1 | – | active: 3.55 µM
21 | CCCCSc1nc(-c2cccc(OC)c2)nc2c1Cc1c(CO)cnc(C)c1O2 | inactive: -1.36% | –
22 | COc1c2occc2c(OC)c2c(=O)cc(C)oc12 | inactive: -3.15% | –
23 | CC1(C)S[C@@H]2[C@H](NC(=O)Cc3ccccc3)C(=O)N2[C@H]1C(=O)O (tested in a mixture with another compound) | inactive: 1.1% | –

Row | SMILES | activity change, positive = activation | Potency
24 | CCN(CC)c1ccc(NC(=O)CCc2c(C)nc3ncnn3c2C)c(C)c1 | inactive: -22.3% | –
25 | COc1cc(C2C(C(=O)Nc3ccccc3C)=C(C)Nc3nc(SCc4cc(C)ccc4C)nn32)ccc1O (configuration not stated) | inactive: -32.4% | –
26 | Cc1cccn2c(=O)c(C(=O)N3CCN(c4ccc(Cl)cc4)CC3)cnc12 | inactive: -23.8% | –
27 | O=S(=O)(NCCc1csc2nc(-c3ccccc3)nn12)c1ccc(Oc2ccccc2)cc1 | inactive: -54.7% | –
28 | Cc1ccc(Cl)cc1N1CCN(C(=O)c2noc3c2CCCC3)CC1 | inactive: -33% | –
29 | CCOC(=O)c1cc2c(=O)n3ccccc3nc2n(Cc2ccco2)c1=NC(=O)c1cccc(Br)c1 | inactive: 1.41% | –
30 | Cc1ccc(-n2nnnc2CNC(=O)C2CC(=O)N(c3ccccc3)C2)cc1C (configuration not stated) | inactive: -8.42% | –
31 | COc1ccc(Cl)cc1NC(=O)Cn1nnc2sc(-c3ccccc3)cc2c1=O | inactive: -6.97% | –
32 | NC(=O)NS(=O)(=O)c1ccc(Cl)cc1 | inactive: 2.08% | –
33 | O=C1CN(C(=O)Cc2ccccc2)C(c2ccc(F)cc2)c2cc(Br)ccc2N1 (configuration not stated) | inactive: -28.5% | –
34 | Cc1cc(S(=O)(=O)Nc2ccc3oc4c(c3c2)CCCC4)ccc1Cl | inactive: -26.4% | –
35 | CCCc1nn2c(=O)cc(COC(=O)c3ccc(NC(=O)COc4ccccc4F)cc3)nc2s1 | inactive: -3.73% | –
36 | CCOc1ccc(CCNCc2c(C(=O)O)c(C)n(Cc3ccccc3F)c2C)cc1 | inactive: -15.6% | –
37 | Cc1ccc(S(=O)(=O)N2CCc3cc(C(=O)Nc4ccc(Cl)cc4C)ccc32)cc1 | inactive: 12% | –
38 | CCOc1ccc(NC(=O)[C@@H](c2ccccc2)N2Cc3ccccc3C2=O)cc1 | inactive: 0.903% | –
39 | CC(C)c1ccc(N2C(=O)N(Cc3cccc([N+](=O)[O-])c3)c3ccccc3S2(=O)=O)cc1 | inactive: -23.9% | –
40 | Cc1noc(-c2ccc(-c3noc(-c4ccc([N+](=O)[O-])c(C)c4)n3)cc2)n1 | inactive: 7.99% | –
41 | COc1ccc(NS(=O)(=O)c2ccc3c(c2)[C@H]2C=CC[C@H]2[C@@H](c2ccc(C(=O)O)cc2)N3)cc1 | inactive: -3.38% | –
42 | Cc1ccccc1Cn1c(C)c(CNCCCc2ccccc2)c(C(=O)O)c1C | inactive: -17% | –
43 | COc1ccc(C2C=C(c3ccc(Cl)cc3)Nc3nc(NC(=O)CCC(=O)O)nn32)cc1 (configuration not stated) | inactive: -5.15% | –
44 | O=c1c2sc3ccccc3c2n(Cc2ccc(Cl)cc2)c(=O)n1Cc1ccco1 | inactive: -12.9% | –
45 | COc1ccc(-c2csc3nc(-c4ccc(C)cc4)oc(=O)c23)cc1OC | inactive: 0.831% | –
46 | Cc1ccc(NC(=O)CCc2nc3cccnc3n2-c2ccccc2)cc1Cl | inactive: -25% | –

Row | SMILES | activity change, positive = activation | Potency
47 | COc1ccc(CCN(C)CCCC(C#N)(c2cc(OC)c(OC)c(OC)c2)C(C)C)cc1OC (configuration not stated) | inactive: -13.1% | –
48 | Cc1ccc(N(Cc2cccs2)C(=O)c2ccccc2[N+](=O)[O-])cc1 | inactive: -39.6% | –
49 | CCCOc1cccc(C(=O)N2CCCCC2CCN2CCCCC2)c1 (configuration not stated) | inactive: -3.69% | –
50 | CCC(C)NC(=O)Cn1c(=O)c2cccn2c2ccc(F)cc21 (configuration not stated) | inactive: -4.01% | –
51 | O=C(Nc1ccc(F)cc1Cl)c1cnc(N2CCOCC2)c2ccccc12 | inactive: -6.31% | –
52 | Fc1ccccc1N1CCN(c2ncnc3c2nc2n3CCCC2)CC1 | inactive: -13.1% | –
53 | COc1ccc(CCNC(=O)CCCCn2c(=O)c3ccccc3n(Cc3ccccc3)c2=O)cc1OC | inactive: -28.6% | –
54 | CN(C)c1ccc(NC(=O)Cn2cc(S(=O)(=O)Cc3ccccc3Cl)c3ccccc32)cc1 | inactive: -16.5% | –
55 | CCOC(=O)c1ccc(NC(=O)CSc2ncc(S(=O)(=O)c3ccc(C)c(Cl)c3)c(=O)[nH]2)cc1 | inactive: -0.36% | –
56 | CCn1cc2nc(SCC(=O)Nc3ccc(OC)cc3OC)n(Cc3ccc(Cl)cc3)c(=O)c2n1 | inactive: -27% | –
57 | Nc1cc(C(Cl)=C(Cl)Cl)c(S(N)(=O)=O)cc1S(N)(=O)=O | inactive | –
58 | CCCCN(C)c1nnc(NC(=O)Nc2ccc(Br)c(C)c2)s1 | inactive: 5.3% | –
59 | CCc1ccc(CN(Cc2ccco2)C(=O)c2cc(-c3ccc(C)c(F)c3)on2)cc1 | inactive: -11.8% | –
60 | CCOc1ccc(NC(=O)Cn2cc(C(=O)c3ccc(C)cc3)c(=O)c3cc4c(cc32)OCO4)cc1 | inactive: -23.2% | –
61 | CCn1c2c(c(=O)n3ncc(C(=O)Nc4ccc(Cl)cc4C)c13)CN(Cc1ccc(OC)cc1)CC2 | inactive: -16.7% | –
62 | Brc1cccc(-c2nnn3c2nc(N2CCCCC2)c2ccccc23)c1 | inactive: 6.08% | –
63 | O=C(CNS(=O)(=O)c1cccs1)N1CCN(c2ccccc2F)CC1 | inactive: 21.7% | –
64 | Cc1ccc(F)cc1S(=O)(=O)N1CCC(c2nc3ccccc3s2)CC1 | inactive: -5.32% | –
65 | CCCn1c(=O)c2sccc2n2c(CCCC(=O)NC3CCCCC3)nnc12 | inactive: 4.76% | –
66 | COCCCNC(=O)c1ccc(-n2c(-c3ccccc3)cc3c2CCCCC3)cc1 | inactive: 19.2% | –
67 | CCOC(=O)c1cc(OC(=O)c2cc(OC)cc(OC)c2)n(-c2ccccc2)n1 | inactive: -3.89% | –
68 | Clc1ccc2nc(-c3cccs3)c(Nc3ccc4c(c3)OCCO4)n2c1 | inactive: 35.2% | –
69 | CCc1nonc1NC(=O)c1oc2ccc(Cl)cc2c1C | inactive: 29.5% | –

Row | SMILES | activity change, positive = activation | Potency
70 | CCOC(=O)c1c(NC(=O)CSc2cn(CCNC(=O)c3ccc(OCC)cc3)c3ccccc23)sc2c1CCC2 | inactive: -36.5% | –
71 | Cc1ccc(Cl)cc1NC(=O)Cn1c(SCC(=O)NCc2ccccc2)nc2ccccc21 | inactive: -7.72% | –
72 | CC1Cc2cc(S(=O)(=O)NCc3ccccc3)ccc2N1C(=O)C1CCC1 (configuration not stated) | inactive: -30.2% | –
73 | CC1=C(C(=O)OC2CCCCCC2)C(c2ccc(Cl)cc2Cl)CC(=O)N1 (configuration not stated) | inactive: -20% | –
74 | COc1cccc(CNC(=O)c2cc(=O)[nH]c3ccc(S(=O)(=O)N4CCCC4)cc23)c1 | inactive: -7.91% | –
75 | COc1ccc(CNC(=O)CC2Oc3ccc(C)cc3NC2=O)cc1 (configuration not stated) | inactive: 0.196% | –
76 | Cc1ccc(S(=O)(=O)N2CCc3cc(C(=O)Nc4c(C)cccc4C(C)C)ccc32)cc1 | inactive: -1.36% | –
77 | COc1cccc(CC(=O)Nc2ccc3nc(Nc4cccc(C(F)(F)F)c4)cc(C)c3c2)c1 | inactive: -40% | –
78 | COC(=O)c1cc2oc3ccccc3c2n1CC(=O)Nc1ccc(F)c(Cl)c1 | inactive: -12.8% | –
79 | COc1ccc(CCNc2nc(SCc3cccc(Cl)c3)nc3ccccc23)cc1OC | inactive: -9.31% | –
80 | CCOc1ccc(CCNC(=O)c2nn(C)c3c2CSc2ccc(C)cc2-3)cc1OCC | inactive: -58.1% | –
81 | Cc1cccc(Cn2c(CN3CCCC(C)C3)nc3c2c(=O)n(C)c(=O)n3C)c1 (configuration not stated) | inactive: 6.05% | –
82 | Fc1ccc(-c2nnn3c2nc(NCc2ccccc2)c2ccccc23)cc1 | inactive: -4.01% | –
83 | CCOc1cc(C(=O)Nc2ccc(-c3nnc4n3CCCCC4)cc2)cc(OCC)c1OCC | inactive: 0.026% | –
84 | Cn1c(=O)n(C)c2cc(N3CCOCC3)c(NS(=O)(=O)c3ccc(F)cc3)cc21 | inactive: -6.47% | –
85 | O=C1CN(C(=O)c2c(F)cccc2Cl)C(c2ccc(F)cc2)c2cc(Br)ccc2N1 (configuration not stated) | inactive: -20.4% | –
86 | Cc1ccc2c(c1)c1c(c(=O)n(-c3ccccc3)c(=O)n1CC(=O)c1ccc(Cl)cc1)n2C | inactive: -18% | –
87 | CN(C(=O)CSc1nc2ccc(NC(=O)c3cccs3)cc2s1)c1ccccc1 | inactive: -37.8% | –
88 | CCOc1ccc(NC(=O)CSc2nccn2C2CCCC2)cc1 | inactive: 5.18% | –
89 | COC(=O)c1cccc(CN2C(=O)SC(Nc3ccccc3C)C2=O)c1 (configuration not stated) | inactive: -9.68% | –
90 | CCc1ccc(CNC(=O)C2CCN(C(=O)c3ccc(-n4c(C)cc5ccccc54)s3)CC2)cc1 | inactive: -80.4% | –
91 | COc1ccc(-n2c(=O)c3c4c(sc3n(CC(=O)C(C)(C)C)c2=O)CCCC4)c(OC)c1 | inactive: -14% | –
92 | CN1CCN(c2c(F)cc3c(=O)c(C(=O)O)cn(CCF)c3c2F)CC1 | inactive | –
